{"source": "PubChem BioAssay AID686979", "about": "(National Center for Advancing Translational Sciences (NCATS), 2013)", "note": "The campaign covered roughly 420,000 compounds. About 50,000 (12%) were called active. Inconclusive means that the source gave no clear call. Such entries were picked first, then a sample of the others. Calls follow the shape of the dose curve; as a rule, active = well fitted inhibition curve with a large enough effect; inconclusive = small, poorly fitted or top-dose-only effect; inactive = flat fitted curve, though single readings scatter. Potencies of inconclusive entries are left out as doubtful fits.", "data": [{"assay": "qHTS for Inhibitors of human tyrosyl-DNA phosphodiesterase 1 (TDP1): qHTS in cells in presence of CPT; also: nearly all actives have a fitted effect of over 55% in size; also: potency is read from the fitted curve at half-maximal effect; tags tell the direction and shape of the fitted curve; as to activity change, negative = growth inhibition: % is scaled to controls: 0 for no effect and ±100 for the full control effect", "conditions": "chicken DT40 Tdp1-/-;hTDP1 cells + 20 nM CPT, ATP luminescence, 48 h; activity change, negative = growth inhibition: at 46.2 µM (top of the series) unless noted", "summary_of_the_method": "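Chicken DT40 Tdp1-/- cells stably complemented with human TDP1 were seeded at 400 cells/well in medium containing 20 nM camptothecin, exposed to pin-transferred compounds, and grown at 37 °C for at least 48 hr. Viability was read as ATP luminescence.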", "values": [{"molecule": "Cc1ccnc(NC(=O)C2CCC(CNc3c(N4CCCC4)c(=O)c3=O)CC2)c1", "note": "(configuration not stated)", "activity change, negative = growth inhibition": "inactive: -1.5%"}, {"molecule": "CCOC(=O)C1(CCCc2ccccc2)CCN(C(=O)C2CCCO2)CC1", "note": "(configuration not stated)", "Potency": "inconclusive [inhibitor, partial curve]"}, {"molecule": "Nc1nc2ccc(Oc3ccccc3)cc2s1", "Potency": "inconclusive [inhibitor, single point]"}, {"molecule": "CC(C)(C)NC(=O)C[C@H]1C[C@H](C(=O)N2CCCCC2)[C@@]2(C)c3[nH]c4cc(-c5ccco5)ccc4c3CCN2C1=O", "Potency": "inconclusive [inhibitor, single point]"}, {"molecule": "Cc1ccc(S(=O)(=O)N(Cc2cc3cccc(C)c3[nH]c2=O)c2ccccc2)cc1", "Potency": "inconclusive [inhibitor, single point]"}, {"molecule": "COC(=O)c1c(C)[nH]c(C(=O)OCC(=O)c2c(N)n(CC(C)C)c(=O)n(C)c2=O)c1C", "Potency": "inconclusive [inhibitor, single point]"}, {"molecule": "O=C(COc1ccccc1CNCc1ccccc1)Nc1ccccc1", "Potency": "inconclusive [inhibitor, single point]"}, {"molecule": "CCN(CC)CCOC(=O)c1ccc(NC(=O)Cn2ncc3c([nH]c4ccc(C)cc43)c2=O)cc1", "Potency": "active: 4.11 µM"}, {"molecule": "c1ccc(CN(Cc2ccccc2)c2c3c(nc4ncnn24)CCC3)cc1", "Potency": "inconclusive [inhibitor, single point]"}, {"molecule": "CC(=O)Nc1ccc(N)cc1", "activity change, negative = growth inhibition": "inactive: -7.61%"}, {"molecule": "Cc1ccccc1N1CCN(c2ccc(NC(=O)C3CCCCC3C(=O)O)cc2)CC1", "note": "(configuration not stated)", "Potency": "inconclusive [inhibitor, single point]"}, {"molecule": "CC(C)n1c(O)c(/C=C2\\C=NN=C2c2ccccc2)sc1=S", "Potency": "inconclusive [inhibitor, single point]"}, {"molecule": "COc1ccccc1-c1nc(N2CCN(C)CC2)c2ccccc2n1", "activity change, negative = growth inhibition": "inactive: 7.98%"}, {"molecule": "Cc1ccc(C)c(Cn2c3ccccc3c3cnn(CC(=O)NCCCc4ccccc4)c(=O)c32)c1", "Potency": "inconclusive [inhibitor, partial curve]"}, {"molecule": "Cc1nc2ccccc2c2oc(C(=O)NCc3ccccn3)cc12", "Potency": "inconclusive [inhibitor, partial curve]"}, {"molecule": "CCOc1ccc(-c2nonc2NC(=O)c2oc3c(C)c(C)ccc3c2C)cc1OCC", "Potency": "active: 14.6 µM"}, {"molecule": "O=C1NC(=Nc2cccnc2)S/C1=C\\c1cccc(F)c1", "Potency": "inconclusive [inhibitor, single point]"}, {"molecule": "CCN(CC)c1ccc2oc(=O)c(C)nc2c1", "Potency": "active: 5.17 µM"}, {"molecule": "COc1cc(C(=O)NCC(c2cccs2)N2CCOCC2)cc(Br)c1OCc1ccccc1", "note": "(configuration not stated)", "Potency": "active: 9.2 µM"}, {"molecule": "Cc1cccc(OCC(=O)Nc2ccc(S(=O)(=O)Nc3ccccn3)cc2)c1", "Potency": "inconclusive [inhibitor, partial curve]"}, {"molecule": "Cc1ccccc1CNC(=O)C1CCN(c2nnc(-n3c(C)ccc3C)s2)CC1", "Potency": "active: 16.4 µM"}, {"molecule": "COc1ccc2c(c1)c(=O)c(S(=O)(=O)c1ccc(Cl)cc1)cn2C", "activity change, negative = growth inhibition": "inactive: -30%"}, {"molecule": "COc1ccc(NC(=O)c2cc(C3CCCCN3C(=O)OCC(C)C)on2)c(C)c1", "note": "(configuration not stated)", "Potency": "inconclusive [inhibitor, single point]"}, {"molecule": "COc1ccc(NC(=O)COC(=O)COc2cccc(Br)c2)cc1OC", "activity change, negative = growth inhibition": "inactive: 1.71%"}, {"molecule": "COc1cccc(-c2ccc(SCC(=O)N3CCN(c4ccccc4)CC3)nn2)c1", "Potency": "active: 16.4 µM"}, {"molecule": "COCCN=C1Sc2nc3c(C)cccc3cc2CN1Cc1ccco1", "Potency": "inconclusive [inhibitor, single point]"}, {"molecule": "Cc1ccc(NC(=O)CN(C)C(=O)c2ccc(S(=O)(=O)N(C)c3ccccc3)cc2)cc1", "Potency": "inconclusive [inhibitor, partial curve, poor fit]"}, {"molecule": "CC(C)C(NS(=O)(=O)c1cccc2nsnc12)C(=O)NC1CCCCC1C", "note": "(configuration not stated)", "activity change, negative = growth inhibition": "inactive: -3.51%"}, {"molecule": "COc1cccc(/C=N/NC(=O)c2cccc3ccccc23)c1", "Potency": "inconclusive [inhibitor, partial curve]"}, {"molecule": "O=C(COC(=O)c1cc([N+](=O)[O-])ccc1N1CCOCC1)Nc1ncc(Cl)cc1Cl", "activity change, negative = growth inhibition": "inactive: 7.49%"}, {"molecule": "CCCn1c(SCC(=O)Nc2nnc(C)s2)nnc1C1CC1", "activity change, negative = growth inhibition": "inactive: -3.98%"}, {"molecule": "CC(CCc1ccccc1)NC(=O)CC(C)c1ccccc1", "note": "(configuration not stated)", "activity change, negative = growth inhibition": "inactive: -13.8%"}, {"molecule": "Cc1cc(Cl)c2oc(C(=O)N(C)Cc3nccn3C)c(C)c2c1", "Potency": "active: 16.4 µM"}, {"molecule": "Cc1ccc2c(c1)C(c1ccccc1)N(C(=O)c1ccccc1F)CC(=O)N2", "note": "(configuration not stated)", "Potency": "active: 18.4 µM"}, {"molecule": "COC(=O)c1ccc(COc2ccc(/C=C/C(=O)c3ccc(OC)c(CSCC(=O)O)c3)cc2OC)cc1", "activity change, negative = growth inhibition": "inconclusive: -33% [inhibitor]"}, {"molecule": "COc1ccc(Cl)cc1NC(=O)CNc1ccccc1CN(C)C1CCCCC1", "Potency": "inconclusive [inhibitor, single point]"}, {"molecule": "CCc1cccc(CC)c1NC(=O)C(CC)n1nc(C)n2c(cc3cc(C)ccc32)c1=O", "note": "(configuration not stated)", "Potency": "inconclusive [inhibitor, single point]"}, {"molecule": "CN1CCN(C(=S)NC(=O)c2ccc(Br)cc2)CC1", "Potency": "inconclusive [inhibitor, single point]"}, {"molecule": "CSc1ccccc1CNC(=O)C1(C)CCCN1CC(C)C", "note": "(configuration not stated)", "Potency": "active: 25.9 µM"}, {"molecule": "CCOC(=O)c1c(NC(=O)CN2CCOCC2)sc2c1CC(C)(C)OC2", "Potency": "inconclusive [inhibitor, single point]"}, {"molecule": "CCOC(=O)c1c(C)[nH]c(C)c1S(=O)(=O)N1CCCC(C(=O)Nc2ccccc2OCC)C1", "note": "(configuration not stated)", "Potency": "inconclusive [inhibitor, single point]"}, {"molecule": "COC(=O)C(CC(C)C)N(Cc1cc(OC)cc(OC)c1)S(=O)(=O)c1ccccc1Br", "note": "(configuration not stated)", "Potency": "inconclusive [inhibitor, single point]"}, {"molecule": "CCCCn1c(=O)[nH]c(=O)c2c1nc(-c1ccc(C)c([N+](=O)[O-])c1)n2CC", "Potency": "inconclusive [inhibitor, single point]"}, {"molecule": "CCOC(=O)c1cccc(NC(=O)c2cc3cc4ccc(C)cc4nc3o2)c1", "activity change, negative = growth inhibition": "inactive: -4.84%"}, {"molecule": "COc1cc2nc(CN3CCC(C(O)(c4ccccc4)c4ccccc4)CC3)[nH]c(=O)c2cc1OC", "Potency": "inconclusive [inhibitor, single point]"}, {"molecule": "COc1ccc(C2c3ccc(O)cc3Oc3ncn(CCN4CCOCC4)c(=N)c32)cc1", "note": "(configuration not stated)", "Potency": "inconclusive [inhibitor, partial curve, poor fit]"}, {"molecule": "CCCCC(C)n1[nH]c(=O)c2c(C)cc(C)nc21", "note": "(configuration not stated)", "activity change, negative = growth inhibition": "inactive: 1.31%"}, {"molecule": "COc1ccccc1NS(=O)(=O)c1cccc(NC(=O)c2nn(C)c(=O)c3ccccc23)c1", "Potency": "inconclusive [inhibitor, single point]"}, {"molecule": "O=C(CN(c1ccc(Cl)c(C(F)(F)F)c1)S(=O)(=O)c1ccccc1)N/N=C/c1cccc2c1OCCO2", "Potency": "inconclusive [inhibitor, single point]"}, {"molecule": "CCOc1cccc(CN2CCN(c3cccc(C(F)(F)F)c3)CC2)c1O", "Potency": "inconclusive [inhibitor, single point]"}, {"molecule": "Cc1ccc(-n2ncc(C(=O)Nc3ccc4c(c3)OCCO4)c2C2CCN(C(=O)OC(C)(C)C)CC2)cc1", "Potency": "active: 20.6 µM"}, {"molecule": "Cc1ccc(C(=O)CCC(=O)OCC(=O)NNC(=O)c2ccccc2Cl)cc1", "activity change, negative = growth inhibition": "inactive: 9.81%"}, {"molecule": "CN(C)/C=C1\\C=Cc2ccccc21", "Potency": "inconclusive [inhibitor, single point]"}, {"molecule": "Cc1nnc(SCc2cccc(Oc3ccccc3)c2)n1N", "activity change, negative = growth inhibition": "inactive: -1.32%"}, {"molecule": "COc1ccc(OC)c(-c2csc(NC(=O)Cn3[nH]c(=O)c4ccccc4c3=O)n2)c1", "Potency": "inconclusive [inhibitor, full curve, poor fit]"}, {"molecule": "Cc1cc(C)nc(-n2nc(C)cc2NC(=O)CN2CCc3ccccc3C2)n1", "Potency": "active: 10.3 µM"}, {"molecule": "Cc1ccc(C(=O)Nc2ncc(Cc3ccc(SC(F)F)cc3)s2)cc1", "Potency": "active: 1.16 µM"}, {"molecule": "CCCc1ccc(OC(C)C(=O)Nc2sc3c(c2C(=O)OC)CCCCC3)cc1", "note": "(configuration not stated)", "Potency": "inconclusive [inhibitor, single point]"}, {"molecule": "O=C(Nc1nc2c(s1)CCCC2)c1ccc(S(=O)(=O)N2CCCc3ccccc32)cc1", "Potency": "inconclusive [inhibitor, single point]"}, {"molecule": "CCc1nc2ccc(C(=O)NCCc3ccccn3)cn2c1N(CC)CCOC", "Potency": "inconclusive [inhibitor, single point]"}, {"molecule": "O=C(c1cc2cc(Cl)cc(Cl)c2oc1=O)N1CCOCC1", "activity change, negative = growth inhibition": "inactive: -1.79%"}, {"molecule": "Cc1ccc(-c2nc(CS(=O)(=O)CC(=O)N3CCN(c4cccc(C)c4C)CC3)c(C)o2)cc1", "Potency": "inconclusive [inhibitor, single point]"}, {"molecule": "COc1ccc(OCC(=O)N2CCN(c3nnc(-c4ccccc4)c4ccccc34)CC2)cc1", "Potency": "active: 16.4 µM"}, {"molecule": "O=C(Nc1c(-c2ccccc2)[nH][nH]c1=O)c1ccc(Br)cc1", "activity change, negative = growth inhibition": "inactive: -11.1%"}, {"molecule": "Cc1nc(N2CCCCC2)[nH]c(=O)c1CN(C)N=O", "activity change, negative = growth inhibition": "inactive: -17%"}, {"molecule": "CCc1ccc(C(N)=S)cc1", "Potency": "inconclusive [inhibitor, single point]"}, {"molecule": "O=C(CCc1ccc(O)c(O)c1)NNC(=S)Nc1ccc(Br)cc1Cl", "activity change, negative = growth inhibition": "inactive: -30%"}, {"molecule": "Cc1cc(C)nc(Nc2ccccc2Cl)n1", "activity change, negative = growth inhibition": "inactive: -4.34%"}, {"molecule": "Cc1ccc(N2C(=O)CC(Sc3nc(C)cc(C)n3)C2=O)cc1", "note": "(configuration not stated)", "Potency": "active: 7.31 µM"}, {"molecule": "CC1CC1C(=O)N(C)CC(=O)Nc1ccc(Cl)c(C(F)(F)F)c1", "note": "(configuration not stated)", "Potency": "inconclusive [inhibitor, single point]"}, {"molecule": "COc1cccc(OC)c1C(=O)Nc1ccc(C)cc1C(=O)c1ccccc1", "Potency": "inconclusive [inhibitor, single point]"}, {"molecule": "CSc1nc(Nc2cccc(C)c2)c(C#N)c(-c2ccccc2)n1", "Potency": "inconclusive [inhibitor, single point]"}]}]}
